In PubChem BioAssay AID686978 (National Center for Advancing Translational Sciences (NCATS), 2013):
Among all 420,000 compounds or so, about 64,000 (15%) were called active. Inconclusive means that the source gave no clear call. Such entries were picked first, then a sample of the others. The call rests on the fitted dose curve; in most records, active means well fitted inhibition curve with a large enough effect; inconclusive means small, poorly fitted or top-dose-only effect; inactive means flat fitted curve, though single readings scatter. No potency is given beside an inconclusive call; the fits are too rough.

Test: qHTS for Inhibitors of human tyrosyl-DNA phosphodiesterase 1 (TDP1): qHTS in cells in absence of CPT; further: nearly all actives have a fitted effect of over 55% in size
Conditions: DT40 Tdp1-/- hTDP1 cells, no CPT, ATP luminescence, 48 h; activity change, negative = growth inhibition: at 46.2 µM (top of the series) unless noted
Outline: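 Growth of hTDP1-complemented DT40 Tdp1-knockout cells is measured by ATP luminescence after at least 48 hr compound exposure at 37 °C, with DMSO substituting for the 20 nM CPT used in the parallel screen.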
On the % scale 0 is the no-effect control and ±100 the full control effect; potency means the concentration at half of the fitted maximal effect; tags describe the fitted curve by direction and shape.

Row | Compound | activity change, negative = growth inhibition | Potency
1 | CN(C)S(=O)(=O)c1ccc(C(=O)Nc2nnc(SCc3ccccc3)s2)cc1 | inactive: 15.5% | –
2 | CCCCOC(=O)Cn1c(=O)c2c(nc3n2CCCCN3c2ccc(C)cc2)n(C)c1=O | – | inconclusive [inhibitor, partial curve, poor fit]
3 | O=C(Nc1ccnn1C1CCN(Cc2cccc(O)c2)CC1)C1CCCC1 | inactive: 1.61% | –
4 | O=C1C(Oc2ccccc2)C(c2cccs2)N1Cc1ccc2c(c1)OCO2 (stereo unspecified) | inactive: -28.7% | –
5 | CCOCCn1c(SCCCc2ccccc2)nc2c1c(=O)[nH]c(=O)n2C | – | inconclusive [inhibitor, single point]
6 | CC1(C)OC(=O)C(=CNc2cccc(O)c2)C(=O)O1 | inactive: 5.63% | –
7 | O=C(CN(Cc1ccco1)C(=O)Cn1nnc(-c2ccc(F)cc2)n1)NC1CCCC1 | – | inconclusive [inhibitor, single point]
8 | CC(=O)Nc1ccc(CN2C(=O)C(C)(C)ON=C2c2ccc(NC(C)=O)cc2)cc1 | inactive: 7.86% | –
9 | CC(C)N(Cc1cc2ccccc2[nH]c1=O)C(=O)C1CCCCC1 | – | inconclusive [inhibitor, full curve]
10 | CCOC(=O)c1c(NC(=O)CSc2cn(CCNC(=O)c3ccc(OCC)cc3)c3ccccc23)sc2c1CCC2 | inactive: -22.6% | –
11 | Cc1ccc(Cl)cc1NC(=O)Cn1c(SCC(=O)NCc2ccccc2)nc2ccccc21 | – | inconclusive [inhibitor, partial curve]
12 | COCCn1c(C)cc(C2=NNC(=NC(C)(C)C)SC2)c1C | – | active: 18.4 µM
13 | COCCNC(=S)N/N=C/c1ccc(N2CCOCC2)cc1 | – | inconclusive [inhibitor, single point]
14 | CN1CCN(NC(=S)Nc2ccc(OC(F)F)cc2)CC1 | inactive: -20.4% | –
15 | CCC(Sc1nc(-c2ccccc2)c(-c2ccccc2)[nH]1)C(=O)O (stereo unspecified) | inactive: -16.1% | –
16 | CC(=O)Nc1ccc(S(=O)(=O)NCC(=O)OCc2cc(=O)oc3ccc4ccccc4c23)cc1 | – | inconclusive [inhibitor, single point]
17 | N#Cc1ccc(CN2CC[C@@]3(CCCN(C(=O)c4cc(C(F)(F)F)cc(C(F)(F)F)c4)C3)C2)cc1 | – | inconclusive [inhibitor, single point]
18 | O=C(O)c1c[nH]c2cc(C(F)(F)F)ccc2c1=O | – | inconclusive [inhibitor, partial curve]
19 | C/C=C/C=C/C(=O)Nc1nccs1 | inactive: -2.66% | –
20 | COc1ccccc1COn1c(=O)c(-c2ccco2)[n+]([O-])c2ccccc21 | – | active: 18.4 µM
21 | CC(C)NS(=O)(=O)c1ccc(Oc2ncc(C(F)(F)F)cc2Cl)cc1 | – | inconclusive [inhibitor, single point]
